In the supplement of paper PMC12217912:
Some of the results follow. Sequences were assembled here from the parent chain. Inactive controls read about 0.05.

B1: TEV protease; numbered along this chain (parent)
chain: MGESLFKGPRDYNPISSSICHLTNESDGHTTSLYGIGFGPFIITNKHLFRRNNGTLVVQSLHGVFKVKDTTTLQQHLVDGRDMIIIRMPKDFPPFPQKLKFREPQREERICLVTTNFQTKSMSSMVSDTSCTFPSGDGIFWKHWIQTKDGQCGSPLVSTRDGFIVGIHSASNFTNTNNYFTSVPKNFMELLTNQEAQQWVSGWRLNADSVLWGGHKVFMVKPEEPFQPVKEATQL

Variants of: B1
Assay: raw area under fraction-flipped curve 0-4 h after induction (AUC4h, not background-subtracted), DNA-recorder readout of cleavage of the substrate (dimensionless); higher = more cleavage of the substrate by the protease variant
Conditions: temperature: 34 °C; time window: 0-4 h after rhamnose induction
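Also: Bxb1 expression induced with 0.2% (w/v) L-rhamnose at OD600 near 0.5, cultures sampled hourly, flipped fraction per protease–substrate barcode pair counted by paired-end Illumina sequencing.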

Variant | area with substrate ENEYFQS | area with substrate ENFYFQS | area with substrate ENHYFQS | area with substrate ENIYFQS | area with substrate ENNYFQS | area with substrate ENPYFQS | area with substrate ENQYFQS | area with substrate ENYYFQS | area with substrate ENGYFQS | area with substrate ENKYFQS | area with substrate ENVYFQS | area with substrate ENDYFQS | area with substrate ENMYFQS | area with substrate ENSYFQS | area with substrate ENWYFQS | area with substrate ENRYFQS | area with substrate ENTYFQS
S182A | 0.0639 | 0.0652 | 0.0623 | 0.13 | 0.0529 | 0.0778 | 0.0079 | 0.0521 | – | – | – | – | – | – | – | – | –
V67M | 0.0477 | – | – | – | – | 0.0654 | 0.0694 | – | 0.0668 | 0.0464 | 0.0586 | – | – | – | – | – | –
G80R | 0.0726 | – | 0.0499 | 0.0634 | 0.0563 | – | – | – | – | – | – | 0.0749 | 0.0688 | 0.0642 | 0.0473 | – | –
E107K | 0.0595 | – | 0.0525 | 0.0954 | 0.0705 | – | 0.0542 | 0.0742 | 0.0489 | – | – | 0.0664 | – | 0.0677 | 0.0708 | 0.0862 | 0.0714
V165S | 0.0544 | 0.0439 | 0.0544 | – | – | 0.0481 | 0.0453 | 0.0596 | 0.0466 | 0.0886 | 0.057 | 0.0591 | 0.0449 | 0.0496 | – | – | 0.0385
S60D | 0.0452 | – | – | 0.0751 | 0.0235 | 0.0336 | 0.0489 | 0.0229 | – | – | 0.0596 | – | – | 0.0606 | 0.0516 | – | 0.0431
F173I | 0.0736 | 0.0517 | – | – | 0.0668 | 0.0615 | 0.064 | – | 0.0683 | 0.0525 | 0.0603 | 0.0495 | – | 0.0682 | 0.0147 | 0.0584 | 0.0582
Q97S | – | – | – | – | – | – | – | – | – | – | 0.0548 | 0.0422 | 0.0908 | 0.0574 | – | – | –
C131S | 0.0699 | – | – | 0.0853 | – | – | 0.0736 | – | – | – | 0.0854 | 0.0564 | – | – | – | – | 0.0714
Q151P | 0.0502 | 0.0548 | 0.0572 | – | – | – | 0.0655 | – | – | 0.065 | 0.0224 | 0.0577 | – | 0.0566 | 0.0426 | 0.0477 | –
Q151L | 0.0668 | 0.0687 | 0.062 | 0.0949 | 0.0755 | 0.059 | 0.0631 | – | 0.0724 | – | – | 0.0646 | – | 0.0518 | 0 | 0.0588 | 0.0472
L190G | – | – | 0.0683 | – | – | – | 0.0628 | 0.0549 | 0.0644 | – | 0.0587 | 0.0544 | 0.0796 | – | – | – | 0.0567
V113T | 0.0499 | 0.0411 | 0.0533 | – | – | 0.0451 | 0.0658 | 0.0531 | 0.0592 | 0.0641 | 0.045 | 0.0773 | – | 0.0588 | – | 0.0558 | –
N193I | – | 0.0503 | – | – | 0.0671 | – | 0.0654 | 0.0309 | – | – | 0.0675 | – | 0.0944 | 0.0706 | – | – | –
I86K | 0.0437 | 0.0415 | 0.0662 | – | 0.0447 | – | 0.0288 | 0.0321 | – | – | 0.038 | – | – | – | 0.0267 | 0.0353 | 0.044
G8V | 0.0633 | – | – | – | – | – | 0.0579 | – | – | – | 0.0852 | – | – | – | – | – | 0.0585
T30K | 0.0749 | 0.0674 | – | – | 0.0724 | 0.094 | 0.036 | 0.0423 | – | 0.0724 | 0.0506 | – | – | 0.0579 | – | 0.0657 | 0.0631
R102D | – | – | – | – | 0.0532 | 0.0501 | – | – | 0.038 | – | 0.0501 | 0.0599 | – | 0.0529 | 0.0437 | 0.0552 | –
F187N | 0.0509 | 0.0537 | 0.0622 | 0.0488 | 0.0469 | – | – | – | 0.0501 | 0.0464 | 0.0804 | – | 0.0515 | 0.0513 | 0.0527 | – | 0.0808
F187C | – | – | 0.0705 | 0.13 | – | – | 0.0596 | – | – | – | 0.0647 | – | – | – | – | – | –
C111N | 0.0635 | – | – | – | 0.0636 | – | 0.0614 | – | – | 0.0629 | 0.0696 | 0.0677 | – | – | – | 0.0352 | 0.0763
L211V | 0.0568 | 0.0629 | – | – | – | – | 0.0551 | 0.0718 | – | – | 0.0835 | – | – | – | – | – | 0.0559
F95G | – | 0.0304 | 0.0401 | – | 0.0588 | 0.069 | 0.0484 | – | – | – | 0.0539 | 0.0629 | 0.0582 | 0.0472 | – | 0.0559 | 0.0547
L205E | 0.0676 | – | – | – | – | 0.0569 | 0.0573 | – | – | – | 0.0687 | 0.0621 | – | 0.0595 | – | – | 0.0773
